The values that follow come from ChEMBL document CHEMBL4888484, “Replenishing the malaria drug discovery pipeline: Screening and hit evaluation of the MMV Hit Generation Library 1 (HGL1) against asexual blood stage Plasmodium falciparum ,using a nano luciferase reporter read-out” (2022).

The term % Inhibition denotes the relative decrease from the control value, in per cent.

In all, about 150,000 compounds went through this assay and about 540 (0.36%) showed an effect of 50% or more. Some of the results follow.

The experiment concerns Plasmodium falciparum. In words: Primary screen in NF54 nanoGlo assay, in single point, at 2uM, 72h; a lower Z score goes with more inhibition. The experiment is classed as functional, Erythrocyte. The conditions noted are these: timepoint 72 hour.
In the case of `c1ccc2oc(-c3nc(C4CC4)n[nH]3)cc2c1`, the “% Inhibition” value was -12% and the Z score amounted to 1.37.
On the same counts, the results for `COc1ccccc1N1CCN([C@H]2CCOC2=O)CC1` are -4% and 0.69.
In the case of `O=C(NC[C@H]1Cc2ccccc2O1)c1ccncc1`, the “% Inhibition” value is reported as -10% and the Z score amounted to 1.37.
Turning to `Cc1cc(OC2CCN(C(=O)Cc3cccc4ccccc34)CC2)cc(=O)n1C`, the “% Inhibition” value is given as -11% and the Z score is recorded as 1.86.
For `Cc1ccc(C(=O)N2CCCO[C@@H](CN3CCCCC3)C2)cc1O`, the “% Inhibition” value came out at 6% and the Z score was -0.81.
On the same counts, the results for `COc1ccc(CN(C(=O)c2ccc(OC(C)C)cc2)[C@H]2CCS(=O)(=O)C2)cc1` are -17% and 1.54.
For `O=C(Nc1ccc(F)c(Cl)c1)[C@H](Cc1ccccc1)n1cnnn1` the same measures were 17% and -2.1.
On the same counts, the results for `O=C(CN1CN(c2cccc(F)c2)c2ncccc2S1(=O)=O)NC1CCCCC1` are -18% and 1.95.
Turning to `CCc1[nH]c2ccc(CNC(=O)CN3CC[C@H](N(C)C)C3)cc2c1C`, the “% Inhibition” value is reported as -3% and the Z score was found to be 0.47.
As to `COc1ccccc1[C@H](C)NC(=O)N1CCN(c2nccs2)CC1`, the “% Inhibition” value came to 3% and the Z score was -0.58.
On the same counts, the results for `C=CC[C@@H]1Cc2c(N)cccc2[C@@H](CC=C)N1` are -7% and 1.07.
On the same counts, the results for `Cc1n[nH]cc1Nc1ncnc2c(C)cccc12` are -8% and 0.76.
On the same counts, the results for `O=C(NCCN1CCNC1=O)c1cccc(-c2cc(C(F)(F)F)n[nH]2)c1` are -3% and 0.42.
`O=S(=O)(C1CC1)N1CCCN(Cc2ccc(-c3ccccc3)o2)CC1`: the “% Inhibition” value is -14% and the Z score is on record as 2.56.
For `Cc1cc(C)n(-c2ccc(N3CCC(N4CC(N5CCOCC5)C4)CC3)cc2)n1` the same measures were -13% and 1.85.
`Cc1cc(Cl)ccc1NC(=O)CN1CCCNC(=O)[C@@H]1C`: the “% Inhibition” value is recorded as -6% and the Z score is 0.94.
Turning to `COCC1(C2CCC2)CN(C(=O)NCc2cnc(C)o2)C1`, the “% Inhibition” value was 12% and the Z score is recorded as -1.74.
On to `Cc1ccc(F)cc1-n1c(C2CC2)n[nH]c1=O`, for which the “% Inhibition” value was -14% and the Z score is recorded as 1.73.
For `Cc1cccnc1C(F)(F)C(=O)Nc1cccc2c1OCC[C@@H]2O` the same measures were -11% and 2.09.
As for `Cc1c(Cl)cccc1NC(=O)Cn1cnc2c(C(N)=O)nsc2c1=O`, the “% Inhibition” value was -8% and the Z score is recorded as 1.02.
For `O=C(NCCC(=O)N1CCCCCC1)N[C@H]1CC12CCCCC2` the same measures were -7% and 1.21.
On the same counts, the results for `O=C([C@@H]1COc2ccccc2C1)N1CCN(S(=O)(=O)c2cccc(F)c2)CC1` are -13% and 2.41.
On the same counts, the results for `CCOc1ccc(-c2nnc(S)o2)cc1` are -2% and 0.31.
On to `CC(C)Oc1ccc(C(=O)Nc2cnc3ccnn3c2)cc1`, for which the “% Inhibition” value is recorded as -6% and the Z score is recorded as 1.2.
As to `CCc1noc(C)c1CN1C(=O)N[C@@](C)(c2cnn(C)c2)C1=O`, the “% Inhibition” value is -2% and the Z score came to 0.26.
Regarding `O=C(c1ccc(Br)o1)N1CCc2ncncc2C1`, the “% Inhibition” value is given as -14% and the Z score is 2.71.
For `CCC(=O)c1ccc(NC(=O)N[C@H]2CCCCN(Cc3nc(C)no3)C2=O)cc1` the same measures were -7% and 0.65.
For `O=c1cccc(-c2nc(C3CCOCC3)nn2-c2nc3ccccc3[nH]2)[nH]1` the same measures were -21% and 2.3.
On to `Cc1cc(C(=O)N(c2ccccn2)C2CCCC2)nc(-c2ccc(Cl)cc2)n1`, for which the “% Inhibition” value is -12% and the Z score amounted to 1.58.
In the case of `CCNC(=O)N1CCN(c2ccc(-c3noc(C4CCCC4)n3)cc2)CC1`, the “% Inhibition” value is given as -5% and the Z score was 0.89.
For `CCc1nsc(N2CCN[C@H](c3cn[nH]c3)C2)n1` the same measures were -12% and 1.43.
In the case of `COc1ccccc1CNC(=O)c1ccc(Cn2c(=O)c3ccccc3n(Cc3ccc(C)cc3)c2=O)cc1`, the “% Inhibition” value was -3% and the Z score is listed as 0.3.
Consider `O=C(Nc1nc(CC(=O)N2CCCCC2)cs1)NC1CCCC1`, for which the “% Inhibition” value was -6% and the Z score is on record as 1.16.
On to `CN(CCCS(C)(=O)=O)C(=O)c1ccc(F)c(Cl)c1F`, for which the “% Inhibition” value was -5% and the Z score stood at 0.88.
Consider `C[C@H]1Cc2ccccc2N1C(=O)CN1CCS(=O)(=O)C(C)(C)C1`, for which the “% Inhibition” value is 1% and the Z score is recorded as -0.15.
For `Cc1[nH]c(C)c(S(=O)(=O)N2CCC(C(=O)Nc3ccc4c(c3)OCCO4)CC2)c1C(=O)N1CCCC1`, the “% Inhibition” value is on record as -13% and the Z score worked out at 1.29.
With `CCn1cc(C(=O)NC[C@H]2COC3(CCC(C)CC3)O2)cn1` (stereo partly specified), the “% Inhibition” value is on record as -8% and the Z score was determined as 0.75.
`CCn1nc(C)c(CN/C(=N\c2ccc3c(c2)OCCO3)NC(=O)c2ccc(C)c(F)c2)c1C`: the “% Inhibition” value is recorded as 3% and the Z score was -0.43.
For `COc1ccc(OC)c(-c2c([C@@H]3c4ccccc4C(=O)N3Cc3ccc(F)cc3)c3ccccc3n2C)c1` the same measures were 11% and -1.31.
For `CC(C)[C@H]1C(=O)NCCN1S(=O)(=O)c1ccc(Cl)s1` the same measures were -19% and 2.56.
On the same counts, the results for `c1cncc(CN2CCN(C3CCCCCC3)CC2)c1` are 30% and -4.41.
In the case of `Cc1cc(CN2CCCCC2)cc(C)c1Oc1cncc(C(=O)N(C)C)n1`, the “% Inhibition” value was -5% and the Z score is listed as 0.74.
On the same counts, the results for `Cc1ccc2[nH]c3c(=O)n(CC(=O)NC4CCCCC4)ncc3c2c1` are -1% and 0.16.
For `Cc1cc(NC(=O)CCc2ccco2)n(-c2cc(C(F)(F)F)ccc2Cl)n1` the same measures were -9% and 0.95.
For `CC[C@H](C)NC(=O)NCc1nnc(C(=O)Nc2ccc3c(c2)OCO3)s1` the same measures were 15% and -1.71.
`CN(C(=O)c1cccc(-c2n[nH]c(C3CCCCC3)n2)c1)[C@H]1COC[C@@H]1O`: the “% Inhibition” value was -9% and the Z score stood at 1.47.
On the same counts, the results for `Cc1ccc(NC(=O)NCCS(=O)(=O)N(C)C)c(C)n1` are -8% and 0.9.
For `CC(C)C[C@H](NC(=O)c1cc(=O)[nH]c(=O)[nH]1)c1ncnn1C` the same measures were -4% and 0.59.
`COCCNC(=O)CCN(CCOC)C(=O)c1cc(-c2c(C)cc(C)cc2C)on1`: the “% Inhibition” value was -12% and the Z score turned out to be 2.09.
On the same counts, the results for `CC(=O)c1cccc(S(=O)(=O)N2CCN(CCn3nc(C)cc3C)CC2)c1` are -6% and 1.04.
On the same counts, the results for `CS(=O)(=O)[C@H]1CCCN(C(=O)NCCOC2CCCCCC2)CC1` are -5% and 0.69.
With `CCN1CC[C@H](CNc2ccc3cccc(Cl)c3n2)C1`, the “% Inhibition” value is on record as 1% and the Z score is on record as -0.1.
Consider `CC(C)CN1C[C@H](OCc2cccnc2)CN(C(=O)CCc2cccs2)CC1=O`, for which the “% Inhibition” value is on record as 10% and the Z score is given as -1.35.
On the same counts, the results for `CCCN(CCC1=CCCCC1)C(=O)c1cc(C(F)F)n[nH]1` are -16% and 2.65.
For `FC(F)(F)c1cc([C@H]2CCCN(CCOCC3CC3)C2)n[nH]1` the same measures were -3% and 0.52.
On the same counts, the results for `Cn1ccc(C(=O)Nc2cc3c(cc2Br)CCC3)cc1=O` are -11% and 1.39.
As for `O=C(c1cccc(CN2CCC(Cc3ccccc3)CC2)c1)N1CCCC1`, the “% Inhibition” value was -9% and the Z score was 1.16.
Regarding `O=C(c1nnn(-c2ccccc2Cl)c1-c1cccnc1)N1CCC(Cc2ccccc2)CC1`, the “% Inhibition” value turned out to be 40% and the Z score is listed as -5.19.
For `Cc1nnc(NC(=O)NCCC(=O)NC2CCCC2)s1` the same measures were 5% and -0.64.
On to `CCN(CC)CC(=O)NCc1cc2c(nc1OC)CN(C1CCCC1)C2=O`, for which the “% Inhibition” value came out at 8% and the Z score is on record as -0.85.
`O=C(NCc1cccnc1)C1CCCC1`: the “% Inhibition” value was 4% and the Z score is reported as -0.57.
As to `CCc1nnc(CNC(=O)[C@H]2C[C@@H](c3ccccc3)N3CCC[C@H]23)o1`, the “% Inhibition” value is listed as -15% and the Z score was found to be 2.29.
On the same counts, the results for `CC(=O)Nc1ccncc1NC(=O)[C@@H]1CCO[C@H]1C1CC1` are -12% and 2.27.
For `CN(CC1=CCCOC1)c1ncc(C#N)cc1Cl` the same measures were -9% and 1.08.
On the same counts, the results for `NC[C@@H](CO)Cc1ccccc1C(F)(F)F` are -10% and 1.33.
For `Cc1cc(C(=O)N2CC(c3ccccc3)C3CCCC32)no1` (stereo unspecified), the “% Inhibition” value is listed as -11% and the Z score came out at 1.64.
For `O=C(Cn1c(=O)c2sccc2n(CC(=O)Nc2ccc3c(c2)OCO3)c1=O)Nc1ccc(F)cc1` the same measures were -4% and 0.6.
For the compound `CCn1c(C)nnc1CS(=O)(=O)Cc1cccc2ccccc12`, the “% Inhibition” value is recorded as -9% and the Z score stood at 1.15.
With `CCCc1nnc(C(=O)N2C[C@H](OC(C)C)[C@@H](O)C2)o1`, the “% Inhibition” value is recorded as -3% and the Z score worked out at 0.36.
Consider `CCn1c(=O)c2ccn(CC(=O)Nc3cc(OC)c(OC)c(OC)c3)c2n(CC)c1=O`, for which the “% Inhibition” value is given as -20% and the Z score was found to be 2.04.
`Cc1ccc(-c2noc([C@H]3CCc4cncn4C3)n2)cc1`: the “% Inhibition” value was determined as 6% and the Z score is -1.25.
For `C/C=C/Cc1nnc(C(=O)N(C)C[C@H]2CCCN2C)o1`, the “% Inhibition” value is recorded as -4% and the Z score came to 0.54.
For `COC(=O)c1ccc(N[C@@H](C)c2ccc(F)cc2)nn1` the same measures were 1% and -0.09.
On the same counts, the results for `O=C1COc2ccc(S(=O)(=O)N3CCC[C@H](C(=O)N4CCCCCC4)C3)cc2N1` are -2% and 0.26.
Consider `CCN(CC)C(=O)Cn1c(=O)ncc2cc(S(=O)(=O)N3CCCC[C@@H]3C)ccc21`, for which the “% Inhibition” value was determined as 0% and the Z score is recorded as -0.06.
For `Cc1cccc(CCC(=O)NS(=O)(=O)N(C)c2ccccc2)c1` the same measures were -13% and 1.36.
As for `CCc1nc(-c2cc3ccccc3nc2N2CCN(c3ccc(OC)cc3)CC2)no1`, the “% Inhibition” value is recorded as -11% and the Z score was 2.05.
In the case of `Cc1nc(NC(=O)C2=NN(c3ccccc3)[C@H](C(N)=O)C2)sc1C`, the “% Inhibition” value is -5% and the Z score is recorded as 0.76.
On the same counts, the results for `CCCc1[nH]nc(-c2ccc3c(c2)OCO3)c1NC(=O)c1ccc(Cl)cc1` are -2% and 0.19.
For `O=C(Cn1cc2c(n1)CCCCCC2)NCCc1ccc(Cl)cc1` the same measures were 6% and -0.96.
For `Cc1cc(Cl)ccc1NC(=O)c1sc2ncnc(N3CCCC3)c2c1C` the same measures were -11% and 1.04.
With `Cc1ccc(Cl)cc1N1CCN(C(=O)C2CCN(c3ccc(-c4cccs4)nn3)CC2)CC1`, the “% Inhibition” value is reported as 0% and the Z score is 0.04.
Take `O=C(N1CCCc2ccccc21)C(O)(c1ccccc1)c1ccccc1`: the “% Inhibition” value came out at 8% and the Z score was -1.47.
